This sample is rich in variants without activity.
B1: tRNA (parent)
chain: CUCUCGGUAGCCAAGUUGGUUUAAGGCGCAAGACUUUAAUUUAUCACUACGAAAUCUUGAGAUCGGGCGUUCGACUCGCCCCCGGGAGAUUUUUUCCUCGAGCAA

Variants of: B1
Assay: nonsense suppression (GFP-seq) (ratio to wild type); higher = more function; SUP4oc tRNA, yeast GFP reporter sort-seq
Summary of the method: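 Nonsense suppression (GFPSEQ) is the median GFP/RFP ratio of each sorting bin, weighted by the variant's estimated share of cells in that bin and expressed relative to the unmutated parent tRNA. Yeast strains carried genome-integrated variants of an ochre-suppressor tRNA from a library with ~3% random mutations, plus a galactose-driven GFP ochre reporter and RFP, and were grown in raffinose/galactose medium containing 80 mg/L adenine. Cells were sorted into GFP/RFP bins, each bin was Illumina-sequenced (phred ≥30), and variants were kept only with ≥100 reads and ≥30 cells.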
For G61A G88U, the nonsense suppression was ≤ 0.026. With A62C G67A U76G C81U the nonsense suppression was ≤ 0.026. For A62U C68G U70C, the nonsense suppression was ≤ 0.026. In the case of A62U G78A, the nonsense suppression is reported as 0.0537. For G67A G78A, the nonsense suppression was ≤ 0.026. With C64A C81U G88U the nonsense suppression was ≤ 0.026. Work on G61C U76C yielded a nonsense suppression of 0.23. In the case of U63C G67A U70C G85C, the nonsense suppression is reported as ≤ 0.026. For G61A U63A G66A, the nonsense suppression was ≤ 0.026. In the case of C64G C79A, the nonsense suppression is reported as ≤ 0.026. In the case of U63C U71A C83A G84C, the nonsense suppression is reported as ≤ 0.026. With U63A A74G A87C the nonsense suppression was ≤ 0.026. In the case of C64U G67U G78C, the nonsense suppression is reported as ≤ 0.026. In the case of A62U A87U G88C, the nonsense suppression is reported as ≤ 0.026. In the case of C64G C81G, the nonsense suppression is reported as ≤ 0.026. In the case of G66C G85C, the nonsense suppression is reported as ≤ 0.026. In the case of G61C C68G U76A, the nonsense suppression is reported as ≤ 0.026. With U63G A74C C75A the nonsense suppression was ≤ 0.026. With A62G U70C U71G the nonsense suppression was ≤ 0.026. For U63C U71G, the nonsense suppression was ≤ 0.026. For G61U U76C G85U, the nonsense suppression was ≤ 0.026. For U63A C82A, the nonsense suppression was ≤ 0.026. In the case of U63G G66A, the nonsense suppression is reported as ≤ 0.026. With U63C G67C C79U C83G the nonsense suppression was ≤ 0.026. For C64U G65U G86U, the nonsense suppression was ≤ 0.026. For C64A G66C C79A, the nonsense suppression was ≤ 0.026. With G66A G88C the nonsense suppression was ≤ 0.026. In the case of G67A C79G A87G, the nonsense suppression is reported as ≤ 0.026. With A62U C80G the nonsense suppression was ≤ 0.026. With G65C G78A C79G the nonsense suppression was ≤ 0.026. With G67C C81G the nonsense suppression was ≤ 0.026. For G67C C80G, the nonsense suppression was ≤ 0.026. With G66C U71G C82A the nonsense suppression was ≤ 0.026. In the case of A60U U71G G85U, the nonsense suppression is reported as ≤ 0.026. With G66A C68U U76G the nonsense suppression was ≤ 0.026. For C64G G66U U76G, the nonsense suppression was ≤ 0.026. In the case of G65C C80U, the nonsense suppression is reported as ≤ 0.026. With A62G C68U U71C the nonsense suppression was ≤ 0.026. In the case of A60U U63A G69U, the nonsense suppression is reported as ≤ 0.026. In the case of A62U A89U, the nonsense suppression is reported as ≤ 0.026. In the case of A62U A89G, the nonsense suppression is reported as ≤ 0.026. For C64U C83A A87G, the nonsense suppression was ≤ 0.026. For A60U G66C G86A, the nonsense suppression was ≤ 0.026. For G65A A89C, the nonsense suppression was ≤ 0.026. In the case of G67A G88C, the nonsense suppression is reported as ≤ 0.026. In the case of G66U G69C G88U, the nonsense suppression is reported as ≤ 0.026. With G61C G67C C79U G85A the nonsense suppression was ≤ 0.026. In the case of G61C G88A, the nonsense suppression is reported as 0.0268. In the case of U63G U71C A74G G85A A89G, the nonsense suppression is reported as ≤ 0.026. In the case of G66A C82A, the nonsense suppression is reported as ≤ 0.026. In the case of G67A G78U C83A, the nonsense suppression is reported as ≤ 0.026. G61C C68U showed a nonsense suppression of 0.633. For G61A U71A, the nonsense suppression was ≤ 0.026. For C64G G66A G73C, the nonsense suppression was ≤ 0.026. In the case of G61A G69A C81G, the nonsense suppression is reported as ≤ 0.026. With G66A G84A the nonsense suppression was ≤ 0.026. With G66A G84C the nonsense suppression was ≤ 0.026. Variant G67A has a nonsense suppression of 0.188. For G67C, the nonsense suppression was ≤ 0.026. U63A G86U showed a nonsense suppression of 0.0573. For A60U C79U, the nonsense suppression was 0.761. With G66C C79G the nonsense suppression was ≤ 0.026. U63C C75U showed a nonsense suppression of 1.1. G65A G78A showed a nonsense suppression of 0.0493. In the case of G65A G78U, the nonsense suppression is reported as ≤ 0.026. With U63G G88A the nonsense suppression was ≤ 0.026. With U63A C75G U76C the nonsense suppression was 1.19. G66A G78A showed a nonsense suppression of 0.0402. In the case of U63C G67A G73C, the nonsense suppression is reported as ≤ 0.026. With A62U G88U the nonsense suppression was ≤ 0.026. In the case of C64G G73A C79A, the nonsense suppression is reported as ≤ 0.026. For A60U G65C, the nonsense suppression was ≤ 0.026. For A62C G65U G66U A74G, the nonsense suppression was ≤ 0.026. For A62C C80A, the nonsense suppression was ≤ 0.026. In the case of G61A G66A U70C, the nonsense suppression is reported as ≤ 0.026. For G66U C72A G85C, the nonsense suppression was ≤ 0.026. For G65C C72U A89C, the nonsense suppression was ≤ 0.026. For G66C G67C, the nonsense suppression was ≤ 0.026. For A62G U63G, the nonsense suppression was ≤ 0.026. In the case of G65A G73C A74C, the nonsense suppression is reported as ≤ 0.026. In the case of A62C G69U, the nonsense suppression is reported as ≤ 0.026. In the case of A62C G69A, the nonsense suppression is reported as ≤ 0.026. With G61U C68G U76C the nonsense suppression was ≤ 0.026. In the case of C64G C79G C81A, the nonsense suppression is reported as ≤ 0.026. For G66A A89U, the nonsense suppression was ≤ 0.026. For G66A A89C, the nonsense suppression was ≤ 0.026. With G66A G84C G85U the nonsense suppression was ≤ 0.026. For G66U G85A, the nonsense suppression was ≤ 0.026. For C64U G67C A74G G85C, the nonsense suppression was ≤ 0.026. With C64U U70G the nonsense suppression was ≤ 0.026. With G66A G73A the nonsense suppression was 0.182. For A62C G69C G78A, the nonsense suppression was ≤ 0.026. With G61U U76A the nonsense suppression was ≤ 0.026. G61U U76C gave a nonsense suppression of 0.911. In the case of G67C C72A, the nonsense suppression is reported as ≤ 0.026. For G65A G67A A87U, the nonsense suppression was ≤ 0.026. In the case of U63C C72G C82G, the nonsense suppression is reported as ≤ 0.026. For G66A G86C A87C, the nonsense suppression was ≤ 0.026. For G61C G69A A87U, the nonsense suppression was ≤ 0.026. In the case of G65C G78A, the nonsense suppression is reported as ≤ 0.026. With A62G G67C the nonsense suppression was ≤ 0.026. For G66C C77A C79G, the nonsense suppression was ≤ 0.026. For G67A U76A G85U, the nonsense suppression was ≤ 0.026. For G61U G65A G86U, the nonsense suppression was ≤ 0.026. In the case of C64U C83U, the nonsense suppression is reported as ≤ 0.026. For G61C G65A, the nonsense suppression was ≤ 0.026. For U63A U76A C80G, the nonsense suppression was ≤ 0.026. In the case of G61C G65U C81A, the nonsense suppression is reported as ≤ 0.026. With G61U C79G the nonsense suppression was ≤ 0.026. In the case of G65A G85C A87C, the nonsense suppression is reported as ≤ 0.026. With U63C G88U the nonsense suppression was ≤ 0.026. In the case of G65U C82A, the nonsense suppression is reported as ≤ 0.026. For G61U G86U, the nonsense suppression was ≤ 0.026. For G65A G69A, the nonsense suppression was ≤ 0.026. For C64A G66C, the nonsense suppression was ≤ 0.026. For U63G G78U, the nonsense suppression was 0.0445. In the case of G67C G84A G86U G88C, the nonsense suppression is reported as ≤ 0.026. With G65C G66C the nonsense suppression was ≤ 0.026. In the case of C64A C72U, the nonsense suppression is reported as ≤ 0.026. With G61C G78A C79U the nonsense suppression was ≤ 0.026. With C64A G67C the nonsense suppression was ≤ 0.026. In the case of G61C G69C, the nonsense suppression is reported as ≤ 0.026. In the case of U63C G69C, the nonsense suppression is reported as ≤ 0.026. In the case of G65C C72A G73U G86U, the nonsense suppression is reported as ≤ 0.026. In the case of G61U C77G, the nonsense suppression is reported as ≤ 0.026. For G61U C77U, the nonsense suppression was ≤ 0.026. With G66C A89C the nonsense suppression was ≤ 0.026. G61A G69A showed a nonsense suppression of 0.0276. G61A G69C gave a nonsense suppression of 0.0625. With G66A C72G the nonsense suppression was ≤ 0.026. With C64G G69C the nonsense suppression was ≤ 0.026. In the case of G65U G69A, the nonsense suppression is reported as ≤ 0.026. With G61U U71C C72G C80A the nonsense suppression was ≤ 0.026. With G65A C77G the nonsense suppression was ≤ 0.026. In the case of U63A U71A G84C, the nonsense suppression is reported as ≤ 0.026. Work on G65C C81G yielded a nonsense suppression of 1.06. For C64G G88A, the nonsense suppression was ≤ 0.026. For G61U C64A C81A, the nonsense suppression was ≤ 0.026. With A60U U71C A74C A87G the nonsense suppression was ≤ 0.026. With C64G C72U G73U the nonsense suppression was ≤ 0.026. With A62G G69A the nonsense suppression was ≤ 0.026. In the case of G61C U63G C68G, the nonsense suppression is reported as ≤ 0.026. For C64G G86C, the nonsense suppression was ≤ 0.026. In the case of U63C C82A C83A, the nonsense suppression is reported as ≤ 0.026. For C64G G65U U70C G73C, the nonsense suppression was ≤ 0.026. In the case of G65U C72G, the nonsense suppression is reported as ≤ 0.026. With U63C G86A the nonsense suppression was ≤ 0.026. In the case of C64U C82G C83G, the nonsense suppression is reported as ≤ 0.026. With U63G G73U G84C the nonsense suppression was ≤ 0.026. In the case of G65C C72G, the nonsense suppression is reported as ≤ 0.026. G61A A89G showed a nonsense suppression of 0.0396. With G65C A74C C75U the nonsense suppression was ≤ 0.026. With U63C A87C the nonsense suppression was ≤ 0.026. For G61A G73C A74C G88A, the nonsense suppression was ≤ 0.026. With A60U G86C the nonsense suppression was ≤ 0.026. With G65C U70A C77U the nonsense suppression was ≤ 0.026. In the case of A62U C79U C83G, the nonsense suppression is reported as ≤ 0.026. With A62U G85C the nonsense suppression was ≤ 0.026. For A62U C79G, the nonsense suppression was ≤ 0.026. In the case of C64U A74G, the nonsense suppression is reported as ≤ 0.026. For G61C G65A C68U, the nonsense suppression was ≤ 0.026. For U63A G85C, the nonsense suppression was ≤ 0.026. A60U G73A gave a nonsense suppression of 0.222. In the case of C64G C72U, the nonsense suppression is reported as ≤ 0.026. In the case of G67A C83A, the nonsense suppression is reported as ≤ 0.026. With G66C G69U the nonsense suppression was ≤ 0.026. With G61C G84A the nonsense suppression was ≤ 0.026.

Reference: the RNAGym collection of RNA variant scans (doi:10.1101/gad.245936.114)
